We go through 41 molecules from PubChem BioAssay AID743255 (National Center for Advancing Translational Sciences (NCATS), 2014).

The campaign covered roughly 390,000 compounds. About 910 (0.23%) were called active. Not shown: some 5% with an inconclusive outcome. Calls come from the whole dose curve; as a rule, active = well fitted inhibition curve with a large enough effect; inconclusive = small, poorly fitted or top-dose-only effect; inactive = no such curve, though single readings can be large or run the other way. The list shows a part of the results, in another mix than the full data.
% is set by controls: 0 for no effect and ±100 for the full control effect; potency is the fitted concentration of half-maximal effect.

The experiment deals with Ubiquitin carboxyl-terminal hydrolase 1 (Homo sapiens) (UniProt O94782). Nature of the experiment: Inhibitors of USP1/UAF1: Primary Screen. Note: nearly all actives have a fitted effect of over 60% in size. The note with it: recombinant USP1/UAF1, Ub-Rhodamine cleavage fluorescence; activity change, negative = inhibition: at 57.1 µM (top of the series). Summed up: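 High-throughput fluorogenic screen: 1nM USP1/UAF1 complex, Ub-Rho substrate 150nM final, 50mM HEPES pH 7.8 with 0.5mM EDTA, 0.1 mg/ml BSA, 1mM TCEP and 0.01% Tween-20.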
UniProt O94782, sequence (O94782 whole entry, looked up): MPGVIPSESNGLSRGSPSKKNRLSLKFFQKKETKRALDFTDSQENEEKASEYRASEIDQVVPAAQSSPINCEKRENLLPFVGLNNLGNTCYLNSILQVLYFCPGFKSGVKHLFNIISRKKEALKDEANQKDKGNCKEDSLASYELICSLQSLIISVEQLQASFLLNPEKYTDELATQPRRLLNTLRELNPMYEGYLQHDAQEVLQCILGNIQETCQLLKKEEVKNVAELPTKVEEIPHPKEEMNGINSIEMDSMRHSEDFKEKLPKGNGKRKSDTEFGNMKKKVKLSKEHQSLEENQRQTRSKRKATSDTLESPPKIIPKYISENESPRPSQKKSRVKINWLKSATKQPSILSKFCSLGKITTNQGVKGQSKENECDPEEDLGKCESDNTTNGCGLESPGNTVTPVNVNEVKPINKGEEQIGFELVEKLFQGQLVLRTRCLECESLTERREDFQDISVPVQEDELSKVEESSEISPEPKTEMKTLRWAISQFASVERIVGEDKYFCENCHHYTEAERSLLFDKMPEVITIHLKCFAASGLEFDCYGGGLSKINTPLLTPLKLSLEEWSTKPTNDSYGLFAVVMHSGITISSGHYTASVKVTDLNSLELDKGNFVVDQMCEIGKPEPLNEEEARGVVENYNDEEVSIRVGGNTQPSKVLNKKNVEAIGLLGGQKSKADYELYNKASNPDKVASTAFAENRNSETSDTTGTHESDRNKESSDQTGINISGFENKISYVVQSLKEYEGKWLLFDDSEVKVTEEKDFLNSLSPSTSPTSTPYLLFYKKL
In the case of `C=CCC[C@H](Cc1ccc(F)cc1)C(=O)OC[C@@H](Cc1c[nH]c2ccccc12)NC(=O)[C@@H](CC=C)CC(=O)N(CCO)Cc1ccccc1`, the “activity change, negative = inhibition” value was inactive: 13.7%. In the case of `CCCOc1cccc(C2C(C(=O)c3cccs3)=C(O)C(=O)N2Cc2cccnc2)c1` (stereo unspecified), the “activity change, negative = inhibition” value was inactive: 103%. Same read-out and setting: next, `COC(=O)c1ccccc1NC(=O)CCCN1C(=O)C(c2ccccc2)Oc2cccnc21` (stereo unspecified): inactive: -30.7%; `Cn1ncc2c(N3CCOCC3)ncnc21`: inactive: 31.6%.

Turning to `COc1ccccc1NC1=C(N2CCCCC2)C(=O)c2ccccc2C1=O`, the Potency was active: 17.8 µM. Regarding `O=C(Nc1ccccc1)C1=C[C@H](c2ccc3c(c2)OCO3)C[C@H](OCCCCO)O1`, the “activity change, negative = inhibition” value was inactive: -21.7%. Regarding `O=C1N[C@@H](c2ccccc2)COC(=O)[C@@H](Cc2ccc(F)cc2)CC/C=C/C[C@H]1CC(=O)N(CCO)Cc1ccccc1`, the “activity change, negative = inhibition” value is inactive: 0.576%.

Take `O=C1N[C@@H](Cc2ccccc2)COC(=O)[C@H](Cc2ccc(F)cc2)CC/C=C/C[C@H]1CC(=O)N(CCO)Cc1ccccc1`: the “activity change, negative = inhibition” value is inactive: 3.34%. Same read-out and setting: next, `C[C@H]1COC(=O)[C@@H](Cc2ccc(F)cc2)C/C=C\C[C@@H](CC(=O)NCCO)C(=O)N1`: inactive: -2.36%; `C=CC[C@@H](Cc1ccc(F)cc1)C(=O)OC[C@@H]1CCCN1C(=O)[C@@H](CC=C)CC(=O)NCCO`: inactive: -20.1%; `COc1cc2c(C(=O)N3CCN(c4cccc(Cl)c4)CC3)cn(C)c(=O)c2cc1OC`: inactive: -18%. `CCc1ccccc1NC(=O)c1cc(-c2ccc(OC)cc2)on1`: the “activity change, negative = inhibition” value is inactive: -20.1%.

For `OCC[C@H]1C[C@H](O)[C@@H](O)[C@@]2(CCCCO2)O1`, the “activity change, negative = inhibition” value was inactive: -27.7%. The same measure, in the same setting: the value for `CC(=O)c1cccc(N(C(=O)Cn2nnc3ccccc32)C(C(=O)NCc2ccccc2)c2ccc(F)cc2)c1` (stereo unspecified) was inactive: -8.52%. On to `Cc1ccccc1NC1=C/C(=N\S(=O)(=O)c2ccc(C(=O)O)cc2)c2ccccc2C1=O`, for which the Potency is active: 1.26 µM. Turning to `CCN(c1ccc(OC)cc1)S(=O)(=O)c1nnc(NC(=O)COc2ccc(F)cc2)s1`, the “activity change, negative = inhibition” value is inactive: -20.7%. On the same count and under the same terms, the value for `Cc1ccccc1OCc1n(CC(=O)OC2CC(C)CCC2C(C)C)c2ccccc2[n+]1C` (stereo unspecified) was inactive: -1.86%; that for `CC1(C)OC2C(O1)[C@@H](CO)O[C@H]2n1cnc2c(N)ncnc21` (stereo partly specified) was inactive: -17.2%. In the case of `CCCN1C=CC(=CC=C(C#N)C#N)C=C1`, the Potency was active: 22.4 µM. As to `C=CCC[C@H](Cc1ccc(F)cc1)C(=O)OC[C@H](Cc1c[nH]c2ccccc12)NC(=O)[C@H](CC=C)CC(=O)N(CCO)Cc1ccccc1`, the “activity change, negative = inhibition” value is inactive: -18.6%. In the case of `O=C(O)c1ccc(Nc2nc(-c3ccccc3)c3cc(Br)ccc3n2)cc1`, the “activity change, negative = inhibition” value was inactive: 39.1%. On the same count and under the same terms, the value for `O=C(O)C1=C[C@@H](c2ccc(Br)cc2)C[C@@H](OCc2ccc(CO)cc2)O1` was inactive: -23.7%; that for `C[C@@H]1CN([C@@H](C)CO)C(=O)CCCn2cc(nn2)CO[C@H]1CN(C)S(=O)(=O)c1ccccc1` was inactive: -21.9%; that for `COc1cc2ccc(=O)oc2c(O[C@@H]2O[C@H](CO)[C@@H](O)[C@H](O)[C@H]2O)c1O` was inactive: -23.2%. As to `COC(C[C@@H]1O[C@H]1[C@@H](O)[C@@H](C)OCc1ccccc1)OC`, the “activity change, negative = inhibition” value is inactive: 0.0132%. As for `C[C@@H]1CN(S(=O)C(C)(C)C)[C@H](CCO)/C1=C\c1ccccc1` (stereo partly specified), the “activity change, negative = inhibition” value was inactive: -26.7%. Turning to `Cc1ccc(S(=O)(=O)/N=C2\C=C(Nc3ccc(O)cc3)C(=O)c3ccccc32)cc1`, the Potency is active: 11.2 µM. Turning to `CCOC(=O)[C@@H]1[C@H]2COc3ccccc3[C@@H]2N2C(=O)N(c3ccc(Cl)cc3)C(=O)[C@]12C`, the “activity change, negative = inhibition” value is inactive: -19.5%. On the same count and under the same terms, next, `O=C(N/C(=C/c1ccccc1)C(=O)N1CCCCCC1)c1ccccc1`: inactive: -11.7%; `COc1ccccc1CN1C(=O)CN(C2CCCCCC2)C(=O)C1c1ccc(F)cc1` (stereo unspecified): inactive: -17%.

As for `CC(=O)Nc1ccc(S(=O)(=O)Nc2nc3ccccc3nc2-n2ccc(=NC(=O)c3ccc(F)cc3)cc2)cc1`, the “activity change, negative = inhibition” value was inactive: 223%.

With `COc1ccc2cc(-c3nc(Cl)c4c5c(sc4n3)CC(C)CC5)c(=O)oc2c1` (stereo unspecified), the “activity change, negative = inhibition” value was inactive: 102%. Take `C[C@H](O)C#Cc1ccc2c(c1)O[C@@H](CN(C)Cc1ccc(-c3ccccc3)cc1)[C@H](C)CN([C@@H](C)CO)S2(=O)=O`: the “activity change, negative = inhibition” value is inactive: -24%. Turning to `O=C(c1cccnc1)N1CCN(Cc2cccc(Br)c2)CC1`, the “activity change, negative = inhibition” value was inactive: 33.8%. The same measure, in the same setting: next, `COC(C[C@@H]1O[C@H]1[C@H](O)COCc1ccccc1)OC`: inactive: -6.32%; `COC(C[C@H]1O[C@H]1[C@@H](O)COCc1ccccc1)OC`: inactive: -28.2%; `COc1ccc(-c2cc(=O)c3c(O)cc(OC4OC(COC5OC(C)C(O)C(O)C5O)C(O)C(O)C4O)cc3o2)cc1O` (stereo unspecified): inactive: -25.5%. Take `CC1CCN(S(=O)(=O)c2ccc3c(c2)N(CC(=O)NCCCN2CCCCC2C)C(=O)CS3)CC1` (stereo unspecified): the “activity change, negative = inhibition” value is inactive: -18.6%. On the same count and under the same terms, next, `CCOC(=O)[C@@H]1[C@H]2COc3ccccc3[C@@H]2N2C(=O)N(c3ccccc3)C(=O)[C@]12C`: inactive: -24.6%; `COc1cc(/C=C2\SC(=O)N(CC(=O)Nc3ccc(C)cc3)C2=O)cc(Cl)c1OCC(=O)O`: inactive: 15%; `C[C@@H](NC(=O)c1nc[nH]c1C(=O)N[C@H](C)c1ccccc1)c1ccccc1`: inactive: -21.1%.
